Laboratory results taken from the RNAGym collection of RNA variant scans (doi:10.1073/pnas.2313332121).
Variants at the background level are over-represented here.

B1: TPR 5TU (parent)
chain: GGAUCUUCUCGAUCUAACAAAAAAGACAAAUCUGCCACAAAGCUUGAGAGCAUCUUCGGAUGCAGAGGCGGCAGCCUUCGGUGGCGCGAUAGCGCCAACGUUCUCAACUAUGACACGCAAAACGCGUGCUCCGUUGAAUGGAGUUUAUCAUG

Variants of: B1
Experiment: polymerase ribozyme fitness, log enrichment relative to wild type (log ratio); higher = more active; in vitro selection for triplet polymerase activity
Summary of the method: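 Mutant libraries for each subunit of a heterodimeric triplet polymerase ribozyme were made by PCR and then transcribed. Each library underwent one round of in vitro selection in triplicate: annealing with a biotinylated primer, the partner subunit and triplets, frozen incubation at −7 °C, gel excision of extended constructs, streptavidin-bead capture and RT-PCR. Input and output libraries were Illumina-sequenced, and only genotypes with ≥10 input reads and ≥1 read per output were kept. Fitness is the logarithm, base 2, of genotype enrichment over wild-type enrichment, computed from inverse-variance-weighted replicate averages.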
For G58A A97U A107U, the “polymerase ribozyme fitness (log ratio)” value was -4.18. With U56G U135A the “polymerase ribozyme fitness (log ratio)” value was -1.84. With U56A C93A U102G C118U the “polymerase ribozyme fitness (log ratio)” value was at most -4.2. For C57A C87U, the “polymerase ribozyme fitness (log ratio)” value was -1.52. For C57U G59A G84U C129G, the “polymerase ribozyme fitness (log ratio)” value was at most -4.2. For C57A G74U C85A U130G, the “polymerase ribozyme fitness (log ratio)” value was at most -4.2. In the case of G59C G71A A115G, the “polymerase ribozyme fitness (log ratio)” value is reported as -4.09. For C57U C79A C85U G86A C93A A97G G140U, the “polymerase ribozyme fitness (log ratio)” value was at most -4.2. With G59C A98U C125A G140C the “polymerase ribozyme fitness (log ratio)” value was at most -4.2. With U56A G84A C87G C96G the “polymerase ribozyme fitness (log ratio)” value was at most -4.2. With C57G G59U A60G C85G A89U A97U the “polymerase ribozyme fitness (log ratio)” value was at most -4.2. In the case of C57A G88U A120C G124A C149A, the “polymerase ribozyme fitness (log ratio)” value is reported as at most -4.2. For C57G G67C, the “polymerase ribozyme fitness (log ratio)” value was -4.16. For C57U G58C A60U G88A C99A, the “polymerase ribozyme fitness (log ratio)” value was at most -4.2. In the case of C57A U104G A107C C114U U127C G143C, the “polymerase ribozyme fitness (log ratio)” value is reported as at most -4.2. For G58C U61G A66U U144G, the “polymerase ribozyme fitness (log ratio)” value was at most -4.2. For G58C C79G A91G C123G G124U G141C, the “polymerase ribozyme fitness (log ratio)” value was at most -4.2. For C57U C85U A89C U127A, the “polymerase ribozyme fitness (log ratio)” value was -4.18. For G58U G86C, the “polymerase ribozyme fitness (log ratio)” value was -1.98. With G59C G62U G70C G92C the “polymerase ribozyme fitness (log ratio)” value was at most -4.2. For U56A G86A, the “polymerase ribozyme fitness (log ratio)” value was -1.16. In the case of G59U C75A C96G, the “polymerase ribozyme fitness (log ratio)” value is reported as at most -4.2. With U56A G58C U134A A138G the “polymerase ribozyme fitness (log ratio)” value was at most -4.2. For G58A U90G G117A A142G, the “polymerase ribozyme fitness (log ratio)” value was at most -4.2. For U56G G88U G92U C96U C125A, the “polymerase ribozyme fitness (log ratio)” value was -3.87. With G58A A73U C131A U144G U148A the “polymerase ribozyme fitness (log ratio)” value was at most -4.2. With G58C C96G the “polymerase ribozyme fitness (log ratio)” value was -1.88. For G59A C108G G124U, the “polymerase ribozyme fitness (log ratio)” value was at most -4.2. In the case of C57G G68A G84U G126C U135G U144A, the “polymerase ribozyme fitness (log ratio)” value is reported as at most -4.2. In the case of G59C C95U, the “polymerase ribozyme fitness (log ratio)” value is reported as 0.0454. In the case of C57U A138U U145G, the “polymerase ribozyme fitness (log ratio)” value is reported as -3.98. In the case of G59C C93U U102A A137G, the “polymerase ribozyme fitness (log ratio)” value is reported as -3.95. In the case of U56A C57U U61A C75A G88U A120U U139A G143C, the “polymerase ribozyme fitness (log ratio)” value is reported as at most -4.2. For G59C A60C C69U U77A U101G, the “polymerase ribozyme fitness (log ratio)” value was at most -4.2. With G58C A66U G80A C95U C96U U144G the “polymerase ribozyme fitness (log ratio)” value was at most -4.2. For C57U G83U A137G, the “polymerase ribozyme fitness (log ratio)” value was -1.92. In the case of C57U G84A, the “polymerase ribozyme fitness (log ratio)” value is reported as -0.782. In the case of U56A G83U C149A, the “polymerase ribozyme fitness (log ratio)” value is reported as at most -4.2. In the case of G58C C103G U109G G133A, the “polymerase ribozyme fitness (log ratio)” value is reported as at most -4.2. For G59U C87G, the “polymerase ribozyme fitness (log ratio)” value was at most -4.2. With G58A C76G G143U the “polymerase ribozyme fitness (log ratio)” value was at most -4.2. In the case of C57A A107U C108G C114G G117C, the “polymerase ribozyme fitness (log ratio)” value is reported as at most -4.2. With G59C C87G C116G G143U the “polymerase ribozyme fitness (log ratio)” value was at most -4.2. With C57A G84A A107C U111C the “polymerase ribozyme fitness (log ratio)” value was at most -4.2. For C57A C87A A107G C129U G136U U139A G140U C149G, the “polymerase ribozyme fitness (log ratio)” value was at most -4.2. With C57U G70C U104A the “polymerase ribozyme fitness (log ratio)” value was at most -4.2. In the case of U56C C69G U101G A110G A137U, the “polymerase ribozyme fitness (log ratio)” value is reported as at most -4.2. For G59U C69U C87G C105G C129A G141A, the “polymerase ribozyme fitness (log ratio)” value was at most -4.2. With G58C A73U G92A A97U the “polymerase ribozyme fitness (log ratio)” value was at most -4.2. With G59C G86A the “polymerase ribozyme fitness (log ratio)” value was -2.61. For G58A G59A C85G C93U C95A A137C, the “polymerase ribozyme fitness (log ratio)” value was at most -4.2. With G59A G67A C85G G88C C93A the “polymerase ribozyme fitness (log ratio)” value was at most -4.2. With G59A G67A C108U the “polymerase ribozyme fitness (log ratio)” value was at most -4.2. In the case of C57A A73G C108U G140A, the “polymerase ribozyme fitness (log ratio)” value is reported as at most -4.2. With G58A A64G A91C A147U the “polymerase ribozyme fitness (log ratio)” value was at most -4.2. With G58C A64G G86A the “polymerase ribozyme fitness (log ratio)” value was at most -4.2. For U56A U101A, the “polymerase ribozyme fitness (log ratio)” value was -0.244. For C57G C114A, the “polymerase ribozyme fitness (log ratio)” value was -3.32. For G58A A60U G80C C96U, the “polymerase ribozyme fitness (log ratio)” value was at most -4.2. For C57G G67A U77C G83U C87G U102G, the “polymerase ribozyme fitness (log ratio)” value was at most -4.2. For G59C G62A G88A, the “polymerase ribozyme fitness (log ratio)” value was at most -4.2. In the case of C57A C72G A73G C108U, the “polymerase ribozyme fitness (log ratio)” value is reported as at most -4.2. For G59U C69A U104A A137C, the “polymerase ribozyme fitness (log ratio)” value was at most -4.2. With U56A C69G U148A the “polymerase ribozyme fitness (log ratio)” value was -4.17. In the case of G58A U145G, the “polymerase ribozyme fitness (log ratio)” value is reported as 0.851. In the case of C57G U82C U90A, the “polymerase ribozyme fitness (log ratio)” value is reported as at most -4.2. For G59U G67A G71A G74A C85A, the “polymerase ribozyme fitness (log ratio)” value was at most -4.2. For G59A A60G G94U C95A, the “polymerase ribozyme fitness (log ratio)” value was -1.74. With G58A G62A C69A A91U C132A the “polymerase ribozyme fitness (log ratio)” value was at most -4.2. In the case of C57A C103G G124U U135G, the “polymerase ribozyme fitness (log ratio)” value is reported as at most -4.2. With U56A G70C U90G C95G G133U G140U the “polymerase ribozyme fitness (log ratio)” value was at most -4.2. With U56A A73U G81C U111A U135G the “polymerase ribozyme fitness (log ratio)” value was at most -4.2. With G58C G59A G84C G140U C149U the “polymerase ribozyme fitness (log ratio)” value was at most -4.2. With C57G U77G A106C A121C G128A the “polymerase ribozyme fitness (log ratio)” value was at most -4.2. With C57U G83A G88A A89G U134G the “polymerase ribozyme fitness (log ratio)” value was at most -4.2. For G59A C93U A98U A138C, the “polymerase ribozyme fitness (log ratio)” value was at most -4.2. For U56A G58C C93A G124A, the “polymerase ribozyme fitness (log ratio)” value was -2.36. In the case of U56G G68C C85A C114A, the “polymerase ribozyme fitness (log ratio)” value is reported as at most -4.2. With G59C G86U A107U A113G C114U the “polymerase ribozyme fitness (log ratio)” value was at most -4.2. With G59A G68U G83C A91U the “polymerase ribozyme fitness (log ratio)” value was at most -4.2. With C57U G80A C93U G136A A138C A147C the “polymerase ribozyme fitness (log ratio)” value was at most -4.2. For C57G G74C, the “polymerase ribozyme fitness (log ratio)” value was at most -4.2. In the case of U56A C57U G86C A98C G141A G152A, the “polymerase ribozyme fitness (log ratio)” value is reported as -3.31.
